Test results reported in PubChem BioAssay AID652104 (National Center for Advancing Translational Sciences (NCATS), 2013).
About 7,200 (1.8%) of roughly 410,000 compounds were called active. Inconclusive means that the source gave no clear call. Such entries were picked first, then a sample of the others. Calls come from the whole dose curve; as a rule, active = well fitted activation curve with a large enough effect; inconclusive = small, poorly fitted or top-dose-only effect, or another doubt; inactive = no such curve, though single readings can be large or run the other way. No potency is given beside an inconclusive call; the fits are too rough.

Experiment: qHTS of TDP-43 Inhibitors; note: nearly all actives have a fitted effect of over 50% in size; for growth rescue (activation): % of control where 0% means no effect
Conditions: TDP-43 expressing yeast growth rescue, BacTiter-Glo, 24 h; growth rescue (activation): at 46.1 µM (top of the series) unless noted
In short: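 Cell-based yeast growth screen: TDP-43 expression induced in galactose, inoculum OD600=0.02 after raffinose pregrowth to mid-log. Read-out BacTiter-Glo luminescence at 24 hr, 30 deg C; inhibition of toxicity seen as signal increase.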
Potency is the fitted concentration of half-maximal effect; tags give direction and shape of the fitted curve.

Row | Compound | Potency | growth rescue (activation)
1 | O=C(c1ccc(Br)o1)N1CCN(c2ccc(F)cc2)CC1 | active: 12.6 µM | –
2 | Cc1nc2cc(NC(=O)N3CCCCC3)ccc2n1C | inactive | –
3 | c1ccc2c(c1)NC1(CCCCCC1)n1c-2nc2ccccc21 | inactive | –
4 | Clc1ccc(-c2csc3ncnc(Cl)c23)cc1 | inactive | –
5 | COc1cccc(/C=N/n2c(-c3n[nH]c4c3CCC4)n[nH]c2=S)c1OC | inconclusive [activator, partial curve] | –
6 | COc1cc(/C=N/NC(=S)NC2CC3CC2C2C=CCC32)ccc1O (configuration not stated) | inconclusive [activator, single point] | –
7 | Cc1ccc(OCCSc2nc3ccc(NC(=O)c4ccc5c(c4)OCO5)cc3s2)cc1 | inactive | –
8 | O=C(Nc1ccc2c(c1)CCC2)c1cccc(S(=O)(=O)N2CCN(c3ccccc3)CC2)c1 | inactive | –
9 | Cc1c(C(C)(C)O)[nH]c2ccc(C#N)cc12 | inconclusive [activator, partial curve] | –
10 | COC(=O)c1nnn(CC(=O)Nc2cc(F)ccc2F)c1C(=O)OC | inactive | –
11 | O=C(NCCc1c[nH]c2ccccc12)c1ccccc1 | inconclusive [activator, partial curve] | –
12 | COc1ccccc1-c1nc(COc2ccc(Cl)cc2Cl)no1 | inconclusive [activator, single point] | –
13 | COc1ccc(-c2nc(-c3ccncc3)no2)cc1OC | inconclusive [activator, full curve] | –
14 | N#Cc1c[nH]n2c(NC3CCCCC3)c(-c3ccccc3F)nc12 | – | inactive: 19.8% [at 9.22 µM]
15 | CCN(CC)CCCNC(=O)c1ccc2c(c1)N(Cc1c(F)cccc1Cl)C(=O)c1ccccc1S2 | inactive | –
16 | c1csc(-c2nn3c(C4COc5ccccc5O4)nnc3s2)c1 (configuration not stated) | inconclusive [activator, single point] | –
17 | Oc1ccc(C[C@@H]2CNC(=S)N2CCc2cc(C(F)(F)F)cc(C(F)(F)F)c2)cc1 | inactive | –
18 | CCCc1c(-c2cccc(Br)c2)ncn1Cc1cccc(-c2ccccc2)c1 | inconclusive [activator, single point] | –
19 | CC(=O)Nn1cc2c(c1-c1ccccc1)c(=O)n(C)c(=O)n2C | inactive | –
20 | Cc1noc(C)c1C(=O)Nc1nc(-c2ccccc2Cl)cs1 | inconclusive [activator, partial curve] | –
21 | CC(=O)CSc1nnc2c3ccccc3nc(C(C)(C)C)n12 | active: 14.1 µM | –
22 | CC1(C(=O)Nc2ccccc2)CCN1C(=O)CCc1ccc(Cl)cc1Cl (configuration not stated) | inconclusive [activator, single point] | –
23 | Cc1cc(C)cc(NC(=O)Cn2c(=O)n(C(C)C)c(=O)c3oc4ccccc4c32)c1 | inactive | –
24 | O=C1NC(=O)C(=CC=Cc2ccccc2)S1 | inconclusive [activator, partial curve] | –

Row | Compound | Potency | growth rescue (activation)
25 | Cc1oc2ncnc(N3CCOCC3)c2c1C(=O)N1CCN(c2cccc(C(F)(F)F)c2)CC1 | inconclusive [activator, partial curve, poor fit] | –
26 | COCCNC(=O)/C(C#N)=C/c1c(F)cccc1Cl | inconclusive [activator, single point] | –
27 | Cc1ccc(S(=O)(=O)N(C(=O)c2ccncc2)c2ccc3oc4c(c3c2)CCCC4)cc1[N+](=O)[O-] | inconclusive [activator, partial curve, poor fit] | –
28 | CSc1nncn1/N=C/c1ccc([N+](=O)[O-])cc1 | inconclusive [activator, partial curve, poor fit] | –
29 | O=C(COc1ccccc1)NNC(=O)c1ccc(Cl)cc1 | inactive | –
30 | O=C1CC(c2cccc(Cl)c2)CC(O)=C1C=Nc1ccccc1 (configuration not stated) | inactive | –
31 | COc1cccc(N2CCN(S(=O)(=O)c3ccc4c(c3)CC(C)N4C(=O)C3CC3)CC2)c1 (configuration not stated) | inconclusive [activator, single point] | –
32 | CCC(C)C(=O)Nc1c2c(nc3c1CCC3)CCCC2 (configuration not stated) | inactive | –
33 | COc1cccc(CNc2ccc([N+](=O)[O-])cc2Cl)c1O | active: 14.1 µM | –
34 | O=C(Nc1ccccc1F)c1ccc(S(=O)(=O)N2CCCCCC2)cc1 | inconclusive [activator, partial curve] | –
35 | Cc1ccc(NC(NC(=O)Cc2ccccc2)C(Cl)(Cl)Cl)cc1 (configuration not stated) | inconclusive [activator, partial curve] | –
36 | Cc1ccc(S(=O)(=O)N2[C@@H](c3cccc4ccccc34)C(C(=O)O)=C[C@H]2C(C)(C)C)cc1 | inconclusive [activator, single point] | –
37 | CC(C)(C)c1ccc(/C=N/Nc2nncn2N)cc1 | inconclusive [activator, single point] | –
38 | Cc1csc(SC(C)C(=O)Nc2ccc(F)cc2Cl)n1 (configuration not stated) | inconclusive [activator, single point] | –
39 | Cc1cnc(CNc2nc3cc(-c4ccccc4C)sc3c(=O)n2C)cn1 | active: 35.5 µM | –
40 | CC(OC(=O)c1ccc(-c2ccc(O)cc2)cc1)C(=O)NC1CCCCC1C (configuration not stated) | – | inconclusive: 33.8% [activator]
41 | COc1ccc(/C=N\NC(=O)c2ccccc2)cc1COc1ccc(F)cc1 | inconclusive [activator, partial curve] | –
42 | C=CCOc1c(Br)cc(CNc2ccc(NC(=O)C(C)C)c(OC)c2)cc1OCC | inactive | –
43 | COc1ccc(/C=C/C(=O)N2CCC(c3nc4ccccc4o3)CC2)cc1OC | active: 15.8 µM | –
44 | Cc1cccc(Nc2nc(OCC#N)nc(N(C)C)n2)c1 | inconclusive [activator, single point] | –
45 | Cc1ccc(C)c(S(=O)(=O)N2CCN(C(=O)c3ccc(N4CCCC4)c([N+](=O)[O-])c3)CC2)c1 | inconclusive [activator, single point] | –
46 | CCCOc1ccc2c3c(c(=O)oc2c1OCCC)CCCC3 | inactive | –
47 | Cc1cc(C)cc(NS(=O)(=O)c2ccc(-c3cnc(C4CC4)o3)cc2)c1 | inconclusive [activator, partial curve] | –
